# Values joined by “and” are separate entries in the source; they are usually repeats but may differ in a detail not shown here. Identical values can stand only once. The campaign covered roughly 360,000 compounds. About 7,500 (2.1%) were called active. Inconclusive results, whose numbers are uncertain, are shown with a selection of clear calls. Calls follow the shape of the dose curve; as a rule, active = well fitted cell-killing curve with a large enough effect; inconclusive = small, poorly fitted or top-dose-only effect, or effect the other way, or another doubt; inactive = no such curve, though single readings can be large or run the other way. No potency is given beside an inconclusive call; the fits are too rough.
# Assay: qHTS for induction of synthetic lethality in tumor cells producing 2HG: qHTS for the HT-1080-IDH1KD cell line;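 as to activity, negative = toxicity: 0% = DMSO wells and -100% = cell-free medium wells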
# Conditions: HT-1080 IDH1 knockdown viability, ATP luminescence, 48 h; activity, negative = toxicity: at 46.1 µM (top of the series) unless noted
# Summary of the method: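 Using the IDH1-knockdown HT-1080 line run in the same batch and compound series as the NT line, viability after 48 h at 37 °C was determined by CellTiter-Glo luminescence and expressed as % activity.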
# Potency is read from the fitted curve at half-maximal effect; tags tell the direction and shape of the fitted curve.
SMILES,"activity, negative = toxicity",Potency
Cc1ccc(-n2nnnc2SCC(=O)Nc2cccc(NC(=O)c3ccco3)c2)cc1C,inactive: -26.3%,–
O=C(NCc1ccc(Cl)cc1)N1CCN(Cc2ccccc2)CC1,–,"inconclusive [cytotoxic, single point]"
CSc1ccc(/C=N/N2CCN(Cc3ccc(C)cc3C)CC2)cc1,inactive: -0.978%,–
Cc1ccc([N+](=O)[O-])cc1S(=O)(=O)N1CCN(C)CC1,inactive: -21.7%,–
COc1ccc(-c2cn(Cc3ccc(C(=O)c4ccccc4)cc3)nn2)cc1,–,"inconclusive [cytotoxic, single point]"
COc1cccc(/C=N/n2c(SC)nnc2-c2ccccc2)c1O,–,"inconclusive [cytotoxic, partial curve]"
CCCOC(=O)c1ccc(Oc2c(-c3ccc(OCC)cc3O)n[nH]c2C)cc1,–,"inconclusive [cytotoxic, single point]"
Cc1ccc(/C=C/C(=O)c2c(C)cc(C)[nH]c2=O)cc1,–,active: 10 µM
COc1ccc(NC(=O)Nc2ccc3c(c2)C(=O)N([C@H](C)CO)C[C@H](C)[C@H](CN(C)Cc2ccc(C(=O)O)cc2)OCCCC[C@@H](C)O3)cc1,inactive: 10.5%,–
O=C(c1cccc(S(=O)(=O)NCc2ccccc2)c1)N1CCN(c2ccccc2Cl)CC1,–,"inconclusive [cytotoxic, single point]"
O=C(Nc1cccc(-n2cccn2)c1)C1CCCN(Cc2ccc(C#CCCO)cc2)C1 (configuration not stated),inactive: -19.4%,–
Cc1cc(NC(=O)c2cccs2)n(-c2nc3ccccc3[nH]2)n1,–,"inconclusive [cytotoxic, single point]"
C=CCC[C@H](CCCCC)OC(=O)/C=C/[C@@H](O)[C@H](O)C[C@@H](O)CC=C,–,"inconclusive [cytotoxic, single point]"
CC1=C(/C=C/C(C)=C/C=C/C(C)=C/C(=O)Nc2ccc(O)cc2)C(C)(C)CCC1,–,active: 23.1 µM and active: 16.4 µM
Cc1nn(C)cc1S(=O)(=O)N1CCCCC1C (configuration not stated),inactive: 8.59%,–
CCn1c2ccc(C)cc2c2nnc(SCCN3CCOCC3)nc21,–,"inconclusive [cytotoxic, partial curve]"
N#CC1C(=N)Cc2ccccc2-c2ccccc21 (configuration not stated),–,active: 16.4 µM
Nc1[nH]n2c(=O)c3c(nc2c1N=Nc1ccc(Cl)cc1)CCCC3,inactive: -1.95%,–
Nc1cc(-c2ccc(OC(F)(F)F)cc2)nn1-c1ccc(Cl)c(Cl)c1,–,"inconclusive [cytotoxic, single point]"
O=C(C1CC(=O)N(c2ccccc2F)C1)N1CCOCC1 (configuration not stated),inactive: 0%,–
CCc1cc2c(Nc3ccccc3O)nc(C)nc2s1,–,"inconclusive [cytotoxic, single point]"
Cc1ccc(O)c(NC(=S)NC(=O)CC(C)C)c1,inactive: 2.66%,–
CC(O)(c1cccc(F)c1)c1nc(-c2cccc3cccnc23)cs1 (configuration not stated),–,"inconclusive [cytotoxic, single point]"
Cc1ccc(S(=O)(=O)N2C[C@H]3n4c(=O)ccc(=O)n4C[C@H](OC(=O)Nc4cccs4)[C@@]3(O)C2)cc1,inactive: -29.7%,–

SMILES,"activity, negative = toxicity",Potency
Cn1ccc2c(-c3ccc4[nH]ccc4c3)cc3c(c21)C1CCC3O1 (configuration not stated),–,"inconclusive [cytotoxic, single point]"
O=C(Nc1nc(-c2ccccc2Cl)cs1)c1cccnc1,–,"inconclusive [cytotoxic, single point]"
COC(=O)c1ccc(/C=N/OCC(=O)Nc2cc(F)ccc2F)cc1,inconclusive: -31.1% [cytotoxic],–
C/C(=N\NC(=O)CSc1ncccn1)c1ccc2c(c1)OCCO2,inconclusive: 32.6%,–
COc1ccccc1C1=CC(=O)C[C@H](c2ccc3c(c2)OCO3)C1,–,"inconclusive [cytotoxic, single point]"
CCN(C(=O)COC(=O)c1cc2ccccc2cc1OC)c1c(N)n(Cc2ccccc2)c(=O)[nH]c1=O,inactive: -10.7%,–
Cc1cc(C)nc(Nc2nc(C(N)Cc3ccccc3)cs2)n1 (configuration not stated),–,active: 7.31 µM
Cc1cccc2[nH]c3c(N4CC=C(c5ccc(F)cc5)CC4)ncnc3c12,–,"inconclusive [cytotoxic, single point]"
COc1ccc(CCNC(=O)C2CCN(S(=O)(=O)c3ccc(Cl)cc3)CC2)cc1OC,–,"inconclusive [cytotoxic, single point]"
O/N=C(/c1ccc(F)cc1)C1CC1c1c(F)cccc1Cl (configuration not stated),–,"inconclusive [cytotoxic, single point]"
Cc1onc(-c2ccccc2)c1C(=O)NNC(=S)NC(=O)c1ccc(F)cc1,–,"inconclusive [cytotoxic, single point]"
COC(=O)COc1ccc(NS(=O)(=O)c2cccc([N+](=O)[O-])c2)cc1,inactive: -14.9%,–
CCn1c(SCC(=O)Nc2cc(C(C)(C)C)nn2-c2ccccc2)nnc1-c1cccs1,inactive: -7.97%,–
COC(=O)[C@@]1(Cc2ccc(OC)cc2)[C@H]2c3cc(C(=O)N4CCCC4)n(Cc4ccccn4)c3C[C@H]2CN1C(=O)c1ccccc1,–,"inconclusive [cytotoxic, single point]"
Cc1cc(C)cc(N=c2c([N+](=O)[O-])nn(-c3cccc(Cl)c3)n2O)c1,–,"inconclusive [cytotoxic, single point]"
COc1ccc(C(=O)Nc2ccc(NC(=O)c3ccco3)cc2)cc1,–,"inconclusive [cytotoxic, single point]"
O=C1CC(c2ccccc2)c2cccc(F)c21 (configuration not stated),inactive: 4.45%,–
COc1ccc(-c2csc(NC(=O)c3ccc(S(=O)(=O)N4CCc5ccccc5C4)cc3)n2)cc1,–,"inconclusive [cytotoxic, single point]"
COc1ccc(C(O)c2ncc(-c3cccc4ccccc34)[nH]2)cc1F (configuration not stated),–,"inconclusive [cytotoxic, single point]"
COc1ccccc1NC(=O)/C=C/C(N)=O,–,"inconclusive [cytotoxic, single point]"
O=C(CSc1nnc(NC(=O)c2ccccc2C(=O)O)s1)Nc1ccccc1Cl,–,"inconclusive [rising, single point]"
CCCCNC(=O)C(CC)Sc1nc2sc(C(=O)OC)c(C)c2c(=O)n1N (configuration not stated),–,"inconclusive [rising, partial curve, poor fit]"
COc1cccc(/C=N/NC(=O)CNC(=O)COc2ccccc2)c1O,–,"inconclusive [cytotoxic, single point]"
O=C(NN=C1CCC(=NNC(=O)c2ccccn2)CC1)c1ccccn1,inactive: -11.4%,–

SMILES,"activity, negative = toxicity",Potency
Nc1c(Cl)ncnc1N/N=C/c1ccccn1,–,"inconclusive [cytotoxic, full curve]"
COc1ccc(C(=O)N(C)Cc2cnn(Cc3ccccc3)c2)cc1S(=O)(=O)N1CCOCC1,–,active: 5.8 µM
CC(=O)Nc1ccc(NC(=O)COc2cccc3ccccc23)cc1,inactive: -6.88%,–
O=C(C(=O)N1CCC(Cc2ccccc2)CC1)c1cccc(Br)c1,–,"inconclusive [cytotoxic, single point]"
CC(C)CCNC(=O)C(c1ccc(O)cc1)N(C(=O)C1COc2ccccc2O1)c1cccc(O)c1 (configuration not stated),–,"inconclusive [cytotoxic, single point]"
O=[N+]([O-])c1cc(/C=N/Nc2nc3ccccc3[nH]2)c(O)cc1O,–,active: 7.31 µM
COC(=O)c1ccc(S(=O)(=O)N2CCc3ccccc32)cc1,–,active: 9.2 µM
COc1ccccc1-n1nnnc1SCC(=O)N(CC(C)C)C1CCS(=O)(=O)C1 (configuration not stated),inactive: 1.57%,–
C=CC(=O)Nc1cccc(Oc2cc(Cl)nc3[nH]ccc23)c1,–,"inconclusive [cytotoxic, single point]"
O=C(Nc1ccc(Cl)cc1)Nc1nnc(SCc2ccccc2)s1,inactive: 9.97%,–
O=C(CSc1nnnn1-c1ccccc1)NC(=O)Cc1ccccc1,inactive: -0.0233%,–
Cc1ccc(NC(=O)C2CCN(S(=O)(=O)c3ccc4c(c3)NC(=O)C(C)S4)CC2)cc1Cl (configuration not stated),inconclusive: 0% [cytotoxic],–
O=C(/C=C/c1cn(-c2ccccc2)nc1-c1cccs1)NCCN1CCOCC1,–,"inconclusive [cytotoxic, single point]"
COc1cc(C(F)(F)F)c(C(=O)N(C)Cc2cccc(Cl)c2)cn1,inactive: -13%,–
COc1cccc(CN(C)C(=O)c2ccc(S(=O)(=O)Nc3ccccc3C)cc2)c1OC,inactive: -16.5%,–
COc1ccc(S(=O)(=O)N2CCN(CCc3ccccc3)CC2)c(OC)c1,–,"inconclusive [cytotoxic, single point]"
CCn1c(SCC(=O)NCCc2ccccc2)nnc1-c1ccco1,inconclusive: 34.1%,–
COc1ccc(CC(=O)OCC(=O)Nc2ccc(F)cc2)cc1,inconclusive: 36.1%,–
CCCCCCNc1c([N+](=O)[O-])cc(C)cc1[N+](=O)[O-],inactive: 4.64%,–
CC(=O)c1ccc(N2CCC(c3cc(-c4ccc(Cl)cc4Cl)n[nH]3)CC2)c([N+](=O)[O-])c1,–,"inconclusive [cytotoxic, single point]"
Cc1cc(NC(=O)NC(=O)c2ccccc2NC(=O)CN)ccc1Oc1ncc(Br)cn1,–,"inconclusive [cytotoxic, full curve]"
Cc1csc2nc(NC(=O)c3ccccc3)sc(=O)c12,–,"inconclusive [cytotoxic, single point]"
COc1ccc(Cl)cc1NC(=O)CCN1C(=O)NC(C)(C)C1=O,inactive: 9.08%,–
Cc1cc(C)c2cc(C#N)c(N3CCCN(C(=S)NCCCN(C)C)CC3)nc2c1,–,"inconclusive [cytotoxic, single point]"

# Source: PubChem BioAssay AID686971 (National Center for Advancing Translational Sciences (NCATS), 2013)
